# Results: the supplement of paper PMC3334620
# In all, about 33,000 sequences were measured (“E-score (-0.5 to 0.5)”: median about -0.017, highest 2% from about 0.3 on). This is one part of the list.
# Target: T1, Sut1 (UniProt P53032)
# T1 sequence: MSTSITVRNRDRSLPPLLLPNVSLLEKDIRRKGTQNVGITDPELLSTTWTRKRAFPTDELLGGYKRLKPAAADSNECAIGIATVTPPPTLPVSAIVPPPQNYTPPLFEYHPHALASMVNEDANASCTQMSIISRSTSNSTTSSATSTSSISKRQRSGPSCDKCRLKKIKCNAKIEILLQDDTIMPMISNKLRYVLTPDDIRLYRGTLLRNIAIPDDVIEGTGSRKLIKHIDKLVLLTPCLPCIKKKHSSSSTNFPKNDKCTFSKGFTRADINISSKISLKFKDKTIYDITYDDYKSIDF
# Experiment: PBM E-score (8-mer binding enrichment) (E-score (-0.5 to 0.5)); higher = stronger / more preferred TF binding; most listed sequences are background and not binding sites
# Conditions: protein concentration: 200 nM; construct: GST-full length
# Outline: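 PURExpress in vitro transcription/translation supplied GST-tagged yeast transcription factors, either full-length or DNA-binding domain. Applied at about 100-200 nM to universal all-10-mer Agilent arrays double-stranded by primer extension, the bound protein was detected with fluorescent anti-GST. E-scores, modified Wilcoxon-Mann-Whitney statistics, were given by the Universal PBM Analysis Suite to ungapped eight-base words pooled with their reverse complements after masliner normalisation.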
row,Sequence,PBM E-score
1,ATAGCTGA,-0.00086
2,GATTTCCA,-0.0172
3,AAGCTAGA,-0.0114
4,CGCACCTC,-0.128
5,GGAAGATA,0.104
6,GCGATGAC,-0.218
7,GAGTGGAC,-0.177
8,CCGTGATA,-0.0504
9,AAAATGTG,-0.014
10,CACCCCAG,-0.216
11,AGGTTGGG,-0.218
12,AATCCACA,0.14
13,CCGTCAAC,0.0722
14,AGTATGAC,0.113
15,AATATCCA,0.171
16,TCACCCCA,-0.0213
17,GTCGTGTA,0.0309
18,AACCCACG,-0.0793
19,ATATAGAT,0.272
20,AAGGCACG,0.0592
21,AAGTAAGA,-0.0209
22,GCGCTACA,-0.0141
23,AAATTCCC,-0.245
24,AATGGCGT,-0.147
25,AAATGTCC,0.142

row,Sequence,PBM E-score
1,GGGGGATA,-0.276
2,CATAAATG,-0.0283
3,AACTTACA,0.096
4,GCTAACGA,0.118
5,ACACCCAT,-0.0858
6,CATCTTTC,0.0273
7,GACAGGAC,-0.00501
8,ACTCATCG,0.0167
9,GGCCAGGA,-0.175
10,CGTGTCCC,-0.21
11,AGGTAGTC,-0.125
12,GGCCTAGA,-0.15
13,AGCCAGAC,0.00765
14,ACTCTGAC,-0.103
15,GTAGCCTA,-0.141
16,CGACATTA,0.188
17,CGTAAAAC,-0.0625
18,GCATTGAA,0.0569
19,GTAGCGAC,-0.175
20,GTGAAACA,0.0674
21,CCCCCAGG,-0.402
22,GGTCCATA,-0.0456
23,ATCCTGGA,-0.116
24,ATGATTTC,0.299
25,AAGTGTGG,0.0182

row,Sequence,PBM E-score
1,CATCGACA,-0.0954
2,ATCACACA,0.146
3,ACCCCGAG,0.382
4,CGGGAACG,-0.0927
5,GGAGCGGA,0.118
6,AGGCCTGC,-0.208
7,AGTCCTCG,0.0172
8,ACACACTC,0.117
9,AACGCCTA,-0.0935
10,CATGAATA,0.0806
11,GACGCATA,-0.0138
12,ACCATTGG,-0.0785
13,ACTCCCTC,-0.241
14,ACTGACGG,-0.126
15,ATGCTCGC,-0.228
16,AGCCTGAA,-0.0142
17,CTAACTAA,0.142
18,AACTTGGC,-0.0992
19,CCAGAGCG,-0.147
20,ACGTCTAC,0.00638
21,AAATCCCC,-0.119
22,CAGGCAAA,0.157
23,ATCGGAAC,0.14
24,ACCCCACG,-0.235
25,CCTGGACC,-0.167

row,Sequence,PBM E-score
1,GCGCTAAC,-0.0641
2,GTGGGCAA,-0.133
3,AAGTCGCC,-0.0949
4,AGACCGCT,-0.141
5,CCACCTAA,-0.119
6,CATAACAA,0.179
7,ACGGGTGG,-0.255
8,CTCAGAAG,-0.217
9,ATGCTAAC,0.0416
10,ACTCCGAC,0.489
11,AAAATGTC,0.183
12,CGCGCACA,-0.17
13,AGCTCTGG,-0.268
14,AAAATTGC,0.0649
15,CAACTTGC,-0.173
16,GTGGGAGA,-0.272
17,CGACCGAG,-0.0823
18,ATGGTTCC,0.0908
19,CAATGGTG,-0.274
20,CATCGAGA,-0.0242
21,CCGTCGGC,-0.245
22,GTTTCAGA,-0.195
23,GACGTACA,0.0362
24,AGAGAGTC,-0.161
25,AGCGAGCC,-0.238

row,Sequence,PBM E-score
1,ACCCAAGA,-0.0358
2,CTGCGGCA,-0.15
3,CGTTACCC,-0.203
4,CCAGTCAC,-0.124
5,AACCGCCA,-0.19
6,ATAGTAAA,0.181
7,TGATCAAA,-0.0045
8,CAACCCGG,-0.157
9,GAAATAGC,0.0751
10,GGTGGTAC,-0.0938
11,AACCAACG,-0.0959
12,TATTTCGA,0.211
13,AGACACCG,0.0946
14,TCATCAGA,0.00113
15,ACCCATGC,-0.0891
16,CTCGATCC,-0.00149
17,CTTTAAGC,0.0953
18,ACGGGGCC,-0.135
19,CTCTACCC,-0.225
20,GGGAACAC,-0.0832
21,AAGATCTC,-0.00519
22,AATACTAG,0.0557
23,CGACCAAC,0.0389
24,CCTCCCTA,-0.367
25,CTCAGCTC,-0.178

row,Sequence,PBM E-score
1,GATGGAGA,0.0416
2,ATGACAGC,-0.00371
3,GAGGAAGC,-0.0806
4,CAGATGTC,0.0581
5,ACTCCCGG,0.174
6,AAGTCACT,0.0541
7,CACACGTC,-0.191
8,AACGGAGC,0.231
9,CCCCGTAC,-0.194
10,GGCTGCCA,-0.149
11,AGAGATTC,-0.00815
12,GGCAACAA,-0.127
13,AGATCTGG,-0.255
14,AATTCCGA,0.371
15,CGCGATCC,-0.145
16,GAGATCCA,0.0783
17,GACAATGC,0.0305
18,TAGTTATA,0.318
19,ACACGAAA,0.204
20,ACGGTGCG,-0.0481
21,GTCAATTA,0.214
22,ACCGCCGA,0.0107
23,CTTACAAA,0.171
24,GTCACTGA,-0.1
25,CATCTTCG,-0.0746

row,Sequence,PBM E-score
1,ACATGCCT,0.00953
2,ATTTCACA,0.113
3,TATTGTCA,0.0862
4,ATTCTGAG,0.0593
5,AAACAAGA,0.0505
6,AGGACTTC,-0.0808
7,GTGCGAAA,0.00061
8,GTGGAAAA,0.0489
9,AGACCACG,-0.253
10,CAAAACCC,0.00381
11,AGTAGCAA,0.126
12,CACTCATC,0.0214
13,CCAGCGTC,-0.251
14,AGACCCAA,-0.179
15,CGCGCCAC,-0.0589
16,GGTGAGTA,-0.0662
17,AGCAGCGC,-0.247
18,AAGTAGGT,0.0109
19,GTGTAAAA,0.144
20,ATTTTAAA,0.307
21,ATGCGGGA,-0.0058
22,CTCCTATC,-0.0568
